From PubChem BioAssay AID1345082 (National Center for Advancing Translational Sciences (NCATS), 2018)
Out of some 94,000 compounds screened, about 4,000 (4.3%) were called active. The inconclusive results got no clear call from the source; some entries with a clear call stand among them for comparison. Calls follow the shape of the dose curve; as a rule, active = well fitted inhibition curve with a large enough effect; inconclusive = small, poorly fitted or top-dose-only effect; inactive = no such curve, though single readings can be large or run the other way. A potency beside an inconclusive call is a rough fit, not a confirmed value.

assay: Cytotoxic Profiling in NIH 3T3 Cell Line of Diverse Libraries Using Quantitative High-Throughput Screening; details: NIH 3T3 viability, CellTiter-Glo ATP luminescence, 48-72 h; activity change, negative = cytotoxicity: at 96.7 µM (top of the series) unless noted; series mostly up to 96.7 µM; also: nearly all actives have a fitted effect of over 55% in size
Outline: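 Viability of NIH 3T3 cells after 48 or 72 hr compound treatment at 37 °C was assessed by CellTiter-Glo, with luminescence imaged following a 10 min room-temperature step.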
% is scaled to controls: 0 for no effect and ±100 for the full control effect; potency is read from the fitted curve at half-maximal effect; tags tell the direction and shape of the fitted curve.

Compound	Potency	activity change, negative = cytotoxicity	outcome
O=C(NCCc1cccnc1)c1ccc(-c2nnc3ccc(NC(=O)C4CCC4)cn23)cc1	active: 35.5 µM		
Cc1ccc(C(=O)N[C@H]2CO[C@H]3[C@@H]2OC[C@@H]3Nc2nccc(-c3cccs3)n2)cc1		inactive: -16.4% [at 174 µM]	
Cc1cnccc1CN(C)Cc1cc2n(n1)CCNC2		inactive: -3.86%	
NCC1CCCN(Cc2ccc(-c3nc(-c4cccnc4)cc(=O)[nH]3)cc2)C1 (centres undefined)		inactive: -11.2%	
Cc1nnc(-c2cc(N3CCN(c4ccccn4)CC3)ccn2)n1-c1ccccc1	inconclusive: 79.4 µM [inhibitor, partial curve, poor fit]		
O=C1Nc2ccc(-c3ccccc3F)cc2C(=O)N2CCN(C(=O)c3cccs3)C[C@H]12		inactive: -25.5%	
O=C(NCc1ccc(F)cc1)c1nc(-c2ccccc2)c2ccccn12	inconclusive: 39.8 µM [inhibitor, partial curve]		
O=C(O)CCC1CCCN(S(=O)(=O)c2ccccc2F)C1 (centres undefined)			inactive
COc1ccc(CCc2nc(C3CC(=O)N(c4ccc(F)c(Cl)c4)C3)no2)cc1 (centres undefined)	inconclusive: 31.6 µM [inhibitor, partial curve]		
CCOc1ccccc1C1NC(=O)N(CC(=O)Nc2c(C)cccc2CC)C2=C1C(=O)OC2 (centres undefined)		inactive: -2%	
CCOc1ccc(CC(=O)N2c3ccccc3CC2c2nc(C3CC3)no2)cc1OCC (centres undefined)	inconclusive: 44.7 µM [inhibitor, partial curve, poor fit]		
COCC(=O)N[C@H]1C[C@@H](CO)N(Cc2c[nH]c3ccccc23)C1		inactive: -0.772%	
O=C1NC2(CCCN(C(=O)c3ccccc3F)C2)COc2ccccc21 (centres undefined)	inconclusive: 50.1 µM [inhibitor, partial curve, poor fit]		
COC(=O)Nc1cc(C2CC2)nn1-c1ccccc1		inactive: -15.8% [at 138 µM]	
OC[C@@H]1O[C@H](CNCc2cccc(Cl)c2)[C@H](N2CCN(c3ccc(F)cc3)CC2)[C@@H]1O	inconclusive: 44.7 µM [inhibitor, partial curve, poor fit]		
COC1CCC(C(=O)N2CC(CNc3ccccc3)C3(C2)CN(c2ccccc2)C3)CC1 (centres undefined)	active: 44.7 µM		
CN1CCC(NC(=O)c2ccc3c(c2)N(S(=O)(=O)c2ccccc2F)CC3)CC1	inconclusive: 50.1 µM [inhibitor, partial curve, poor fit]		
COc1nc2nc(CC3CC3)n(C)c2cc1-c1ccc(N2CCOCC2)cc1	inconclusive: 70.8 µM [inhibitor, partial curve]		
O=C(c1ncccc1O)N1CCCC(CCc2cccc(C(F)(F)F)c2)C1 (centres undefined)	inconclusive: 50.1 µM [inhibitor, partial curve, poor fit]		
